This is one part of the list. Rule as the data show it: active = 3.2 or more and inactive = the rest. Most of these values are background signal.
Legend:
Assay in all cases: enrichment score (SH2-bound / input frequency) (ratio); bacterial display of known human phosphotyrosine sites (pTyr-Var adds point mutants) read by sequencing; higher = stronger binding; tyrosines were phosphorylated by kinases first
Settings in all cases: peptide library: pTyr-Var
SHP2 C-SH2 domain E139D = molecular target: SHP2 C-SH2 domain E139D
[1] = molecular target: SHP2 C-SH2 domain wild-type
SHP2 N-SH2 domain L43F = molecular target: SHP2 N-SH2 domain L43F
SHP2 N-SH2 domain T42A = molecular target: SHP2 N-SH2 domain T42A
SHP2 N-SH2 domain T52S = molecular target: SHP2 N-SH2 domain T52S
[2] = molecular target: SHP2 N-SH2 domain wild-type

Measured: enrichment score
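Also: displayed peptides selected on beads carrying the immobilized SH2 domain, with library peptides lacking any tyrosine serving as negative controls.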

KEKLCYVAPDF [ACTA1_Y220_L223P]
inactive: SHP2 C-SH2 domain E139D 0.922 | [1] 1.01
active: SHP2 N-SH2 domain L43F 9.43 | SHP2 N-SH2 domain T42A 8.69 | SHP2 N-SH2 domain T52S 9.11 | [2] 4.54

SMAKFYASEIA [ACADSB_Y373_YF]
inactive: SHP2 C-SH2 domain E139D 0.807 | [1] 0.984 | SHP2 N-SH2 domain L43F 1.08 | SHP2 N-SH2 domain T42A 0.731 | SHP2 N-SH2 domain T52S 0.703 | [2] 0.928

SEKIVYGHVDD [ACO2_Y71_L74V]
inactive: SHP2 C-SH2 domain E139D 0.821 | [1] 0.936 | SHP2 N-SH2 domain L43F 0.685 | SHP2 N-SH2 domain T42A 0.624 | SHP2 N-SH2 domain T52S 0.679 | [2] 0.687

NMSRIYSTAKV [ACE_Y151]
inactive: SHP2 C-SH2 domain E139D 0.781 | [1] 0.898 | SHP2 N-SH2 domain L43F 0.482 | SHP2 N-SH2 domain T42A 0.592 | SHP2 N-SH2 domain T52S 0.636 | [2] 0.785

LTDRGYSFVTT [ACTA1_Y200_E197D]
inactive: SHP2 C-SH2 domain E139D 1.1 | [1] 2.7 | SHP2 N-SH2 domain L43F 0.949 | SHP2 N-SH2 domain T42A 1.97 | SHP2 N-SH2 domain T52S 1.29 | [2] 0.794

RVNSAYQEKVS [ACAN_Y100_D102E]
inactive: SHP2 C-SH2 domain E139D 0.737 | [1] 0.814 | SHP2 N-SH2 domain L43F 0.756 | SHP2 N-SH2 domain T42A 0.997 | SHP2 N-SH2 domain T52S 1.02 | [2] 0.955

IRKDLYANNVM [ACTA1_Y296]
inactive: SHP2 C-SH2 domain E139D 0.951 | [1] 1.01 | SHP2 N-SH2 domain L43F 0.968 | SHP2 N-SH2 domain T42A 0.909 | SHP2 N-SH2 domain T52S 0.806 | [2] 0.954

SMAKYYASEIA [ACADSB_Y373]
inactive: SHP2 C-SH2 domain E139D 0.635 | [1] 0.69 | SHP2 N-SH2 domain L43F 0.638 | SHP2 N-SH2 domain T42A 0.53 | SHP2 N-SH2 domain T52S 0.621 | [2] 0.658

PIYEGYGLPHA [ACTA1_Y171_A172G]
inactive: SHP2 C-SH2 domain E139D 0.641 | [1] 0.785 | SHP2 N-SH2 domain L43F 0.731 | SHP2 N-SH2 domain T42A 0.624 | SHP2 N-SH2 domain T52S 0.619 | [2] 0.842

SMAKFYASGIA [ACADSB_Y373_E376G_YF]
inactive: SHP2 C-SH2 domain E139D 0.499 | [1] 0.726 | SHP2 N-SH2 domain L43F 0.499 | SHP2 N-SH2 domain T42A 0.502 | SHP2 N-SH2 domain T52S 0.807 | [2] 0.726

AVLSLYASGRT [ACTA1_Y145]
inactive: SHP2 C-SH2 domain E139D 1.25 | [1] 1.19 | SHP2 N-SH2 domain L43F 1.15 | SHP2 N-SH2 domain T42A 1.06 | SHP2 N-SH2 domain T52S 1.11 | [2] 1.25

SNKLTYGTMVF [ACOX1_Y275]
active: SHP2 N-SH2 domain L43F 4.66 | SHP2 N-SH2 domain T42A 5.04 | SHP2 N-SH2 domain T52S 5.16
inactive: SHP2 C-SH2 domain E139D 0.951 | [1] 0.864 | [2] 2.48

HNLPIYEGYAL [ACTA1_Y168_V165L]
inactive: SHP2 C-SH2 domain E139D 0.885 | [1] 0.945 | SHP2 N-SH2 domain L43F 0.972 | SHP2 N-SH2 domain T42A 0.894 | SHP2 N-SH2 domain T52S 0.881 | [2] 0.91

SEKIVYGHLDD [ACO2_Y71]
inactive: SHP2 C-SH2 domain E139D 0.702 | [1] 0.894 | SHP2 N-SH2 domain L43F 0.97 | SHP2 N-SH2 domain T42A 0.956 | SHP2 N-SH2 domain T52S 0.792 | [2] 0.775

SMAKYYASGIA [ACADSB_Y373_E376G]
inactive: SHP2 C-SH2 domain E139D 0.939 | [1] 0.589 | SHP2 N-SH2 domain L43F 0.756 | SHP2 N-SH2 domain T42A 0.615 | SHP2 N-SH2 domain T52S 0.652 | [2] 0.649

ILTLKYPIEHG [ACTA1_Y71]
inactive: SHP2 C-SH2 domain E139D 1.77 | [1] 1.32 | SHP2 N-SH2 domain L43F 1.67 | SHP2 N-SH2 domain T42A 1.44 | SHP2 N-SH2 domain T52S 1.71 | [2] 1.55

TLLERYGMIEI [ACSF3_Y355_T358I]
inactive: SHP2 C-SH2 domain E139D 1.42 | [1] 1.14 | SHP2 N-SH2 domain L43F 1.08 | SHP2 N-SH2 domain T42A 1.03 | SHP2 N-SH2 domain T52S 1.02 | [2] 1.2

IGDENYGEGSS [ACO2_Y665]
inactive: SHP2 C-SH2 domain E139D 0.476 | [1] 0.43 | SHP2 N-SH2 domain L43F 0.377 | SHP2 N-SH2 domain T42A 0.37 | SHP2 N-SH2 domain T52S 0.357 | [2] 0.459

FKDGQYWIRGQ [ACSF3_Y466_R471Q]
inactive: SHP2 C-SH2 domain E139D 0.828 | [1] 0.757 | SHP2 N-SH2 domain L43F 0.686 | SHP2 N-SH2 domain T42A 0.653 | SHP2 N-SH2 domain T52S 0.799 | [2] 0.842

FTDGQYWIRGR [ACSF3_Y466_K462T]
inactive: SHP2 C-SH2 domain E139D 0.244 | [1] 0.282 | SHP2 N-SH2 domain L43F 0.37 | SHP2 N-SH2 domain T42A 0.294 | SHP2 N-SH2 domain T52S 0.194 | [2] 0.247

TIAIRYSHSRR [ACOXL_Y260]
inactive: SHP2 C-SH2 domain E139D 0.198 | [1] 0.165 | SHP2 N-SH2 domain L43F 0.196 | SHP2 N-SH2 domain T42A 0.295 | SHP2 N-SH2 domain T52S 0.219 | [2] 0.244

IEDPYYGNDFD [ACP1_Y133_S137F]
inactive: SHP2 C-SH2 domain E139D 0.615 | [1] 0.679 | SHP2 N-SH2 domain L43F 0.658 | SHP2 N-SH2 domain T42A 0.636 | SHP2 N-SH2 domain T52S 0.72 | [2] 0.72

AVLSLYASGRN [ACTA1_Y145_T150N]
inactive: SHP2 C-SH2 domain E139D 1.15 | [1] 1.01 | SHP2 N-SH2 domain L43F 0.998 | SHP2 N-SH2 domain T42A 0.998 | SHP2 N-SH2 domain T52S 1.11 | [2] 1.08

IIEDPYYGNDS [ACP1_Y132]
inactive: SHP2 C-SH2 domain E139D 0.695 | [1] 0.647 | SHP2 N-SH2 domain L43F 0.787 | SHP2 N-SH2 domain T42A 0.687 | SHP2 N-SH2 domain T52S 0.646 | [2] 0.731

TLLERYGMTEI [ACSF3_Y355]
inactive: SHP2 C-SH2 domain E139D 0.884 | [1] 0.935 | SHP2 N-SH2 domain L43F 0.976 | SHP2 N-SH2 domain T42A 0.942 | SHP2 N-SH2 domain T52S 1.12 | [2] 0.988

HNVPIYEGYGL [ACTA1_Y168_A172G]
inactive: SHP2 C-SH2 domain E139D 0.97 | [1] 0.7 | SHP2 N-SH2 domain L43F 0.862 | SHP2 N-SH2 domain T42A 0.841 | SHP2 N-SH2 domain T52S 0.953 | [2] 1.52

IEDPFYGNDSD [ACP1_Y133_YF]
inactive: SHP2 C-SH2 domain E139D 0.665 | [1] 0.65 | SHP2 N-SH2 domain L43F 0.747 | SHP2 N-SH2 domain T42A 0.681 | SHP2 N-SH2 domain T52S 0.665 | [2] 0.777

INASGYRVGPA [ACSM1_Y477_I479V]
inactive: SHP2 C-SH2 domain E139D 0.832 | [1] 0.78 | SHP2 N-SH2 domain L43F 0.688 | SHP2 N-SH2 domain T42A 0.679 | SHP2 N-SH2 domain T52S 0.668 | [2] 0.765

HNLPIYEGFAL [ACTA1_Y168_V165L_YF]
inactive: SHP2 C-SH2 domain E139D 0.832 | [1] 0.861 | SHP2 N-SH2 domain L43F 0.848 | SHP2 N-SH2 domain T42A 0.705 | SHP2 N-SH2 domain T52S 1.03 | [2] 1.02

HNVPIYEGYAL [ACTA1_Y168]
inactive: SHP2 C-SH2 domain E139D 0.852 | [1] 0.906 | SHP2 N-SH2 domain L43F 0.878 | SHP2 N-SH2 domain T42A 0.626 | SHP2 N-SH2 domain T52S 0.858 | [2] 0.898

FKDGQYWIRGR [ACSF3_Y466]
inactive: SHP2 C-SH2 domain E139D 0.231 | [1] 0.248 | SHP2 N-SH2 domain L43F 0.288 | SHP2 N-SH2 domain T42A 0.283 | SHP2 N-SH2 domain T52S 0.224 | [2] 0.25

AVLSLYASDRT [ACTA1_Y145_G148D]
inactive: SHP2 C-SH2 domain E139D 1.19 | [1] 1.03 | SHP2 N-SH2 domain L43F 1.13 | SHP2 N-SH2 domain T42A 1.05 | SHP2 N-SH2 domain T52S 1.08 | [2] 1.28

AVARPYHIQKW [ACSBG1_Y677_A673V]
inactive: SHP2 C-SH2 domain E139D 1.72 | [1] 1.72 | SHP2 N-SH2 domain L43F 1.46 | SHP2 N-SH2 domain T42A 1.58 | SHP2 N-SH2 domain T52S 1.66 | [2] 1.72

AVPSLYASGRT [ACTA1_Y145_L142P]
inactive: SHP2 C-SH2 domain E139D 0.919 | [1] 0.826 | SHP2 N-SH2 domain L43F 0.78 | SHP2 N-SH2 domain T42A 0.637 | SHP2 N-SH2 domain T52S 0.721 | [2] 0.939

MSDVPYVMNRG [ACAT1_Y161_N158D]
inactive: SHP2 C-SH2 domain E139D 0.847 | [1] 0.762 | SHP2 N-SH2 domain L43F 0.587 | SHP2 N-SH2 domain T42A 0.694 | SHP2 N-SH2 domain T52S 0.766 | [2] 0.883

PIAPVYAASMV [ACAT1_Y331]
inactive: SHP2 C-SH2 domain E139D 0.93 | [1] 0.762 | SHP2 N-SH2 domain L43F 0.719 | SHP2 N-SH2 domain T42A 0.655 | SHP2 N-SH2 domain T52S 0.803 | [2] 0.763

IIEDPYFGNDS [ACP1_Y132_YF]
inactive: SHP2 C-SH2 domain E139D 0.929 | [1] 0.933 | SHP2 N-SH2 domain L43F 0.941 | SHP2 N-SH2 domain T42A 0.786 | SHP2 N-SH2 domain T52S 1.58 | [2] 0.975

Reference: the supplement of paper PMC10369915
